Reference: the RNAGym collection of RNA variant scans (doi:10.1093/nar/gkz1192)
Read counts are not given, so values of variants with three or more changes are uncertain.

B1: CPEB3 Ribozyme (parent)
chain: UAACAGGGGGCCACAGCAGAAGCGUUCACGUCGCAGCCCCUGUCAGAUUCUGGUGAAUCUGCGAAUUCUGCUGUAUAUCUC

Variants of: B1
Assay: self-cleavage, relative activity (ratio to wild type); higher = more cleavage; in vitro, sequencing
Procedure, shortened: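 CPEB3 self-cleaving ribozyme mutant libraries were made by rounds of error-prone PCR, barcoded, and transcribed in vitro with T7 RNA polymerase for 5 hours at 37°C. Cleavage occurred during transcription and a 15 min DNase I step before EDTA stop. RNAs were reverse transcribed with template switching and Illumina-sequenced, with DNA sequencing mapping barcodes to variants. Relative activity is the variant's cleaved/total read fraction divided by wild type's (minimum 5 reads), averaged across three batches.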

Variant | self-cleavage
C11G A18G A45G U54C | 0.29
C11G A18U A21G U54C U74A | 0.05
C11G A20G C32A A45G U78C U80C | 0.04
C11G A20G G24A A47G A65C | 0.05
C11G A20G U74G | 0.2
C11G A20U U41A U54C U72A A77U | 0.07
C11G A21G U25A A57G U67C | 0.12
C11G A21U A35U A65G U67A | 0.02
C11G A21U C27G A47G U67C | 0.04
C11G A21U G36A A75U | 0.07
C11G A28C U48C | 0.26
C11G A28G A57G | 0.26
C11G A28G U31C | 0.08
C11G A45G U72C | 0.49
C11G A47U A64G | 0.09
C11G A56G U69A A77G | 0.09
C11G A64G C68A U69A | 0.06
C11G A64G U69C U80C | 0.03
C11G C14A C37U A64G U69C | 0.06
C11G C14U A15G G24A A57G | 0.08
C11G C14U U60C | 0.1
C11G C17U A56U U66C | 0.05
C11G C23A A28G U31A C40U | 0.05
C11G C23A U49A A56G | 0.14

Variant | self-cleavage
C11G C32U C34U G36U A75U | 0.04
C11G C32U U43C A45C A75G | 0.1
C11G C34G U51G A65G U78C | 0.06
C11G C39A G63A A64G U66C | 0.04
C11G C39G C62G U72C | 0.02
C11G G16A G42A A45U A47G U51C U66C | 0.02
C11G G19A U25G U78A C81A | 0.23
C11G G19A U26A C32U C39A | 0.08
C11G G19C A21G A56G | 0.09
C11G G19U G53A | 0.3
C11G G24A U25C | 0.35
C11G G24C U25C U51C U72A | 0.23
C11G G30U U60G | 0.08
C11G G33A C37U C81A | 0.04
C11G G33U U49A G52A | 0.24
C11G G52A U58C A77U | 0.38
C11G G55A A56G A65G U80C | 0.08
C11G U25A U41C U43C A64G | 0.1
C11G U25C A64G A77C | 0.09
C11G U25C G42U U54G U66A G70U | 0.06
C11G U25C U60A A75G | 0.05
C11G U25G U43A A45C U49A | 0.06
C11G U25G U43A U48C U54C U78C | 0.05
C11G U26A U31C G33A U48C A65G | 0.03

Variant | self-cleavage
C11G U26A U58C A64G A65U | 0.03
C11G U26C U67G | 0.16
C11G U31A A35U U43C U54A | 0.28
C11G U31A U43C A45G | 0.3
C11G U31A U69A | 0.33
C11G U31C U49A U60A U69C | 0.08
C11G U41A A57C U66C U80A | 0.04
C11G U41C U49C | 0.26
C11G U43A A64G U72C | 0.41
C11G U48C A64G | 0.48
C11G U51C U69C | 0.2
C11G U51C U72C | 0.63
C11G U66A A75G | 0.08
C11G U76A U78C | 0.49
C11G U76C U80A | 0.35
C11U A13G C50U A56U | 0.12
C11U A13G U25C A64U U69A | 0.03
C11U A13G U25G A45G U58C G70U | 0.02
C11U A13G U31C U43C A56U G63A U66C | 0.12
C11U A13U G53A U67A A77U | 0.11
C11U A13U U26C A64G A65G U74C | 0.05
C11U A13U U41A U72A | 0.06
C11U A13U U51C U80C | 0.48
C11U A15G A56G U72C | 0.29

Variant | self-cleavage
C11U A15G U78C | 0.52
C11U A15U A18G A64G | 0.19
C11U A15U A45G A47G U48C A56U | 0.16
C11U A15U U51C A57G U60A U80A | 0.06
C11U A18G U51A A56U | 0.08
C11U A18U A28G A47G A56U U72C U80A | 0.04
C11U A20G A28G A64G | 0.25
C11U A20G A45G U66C | 0.09
C11U A20G C32U | 0.43
C11U A20U A21G U48C A57G U67C U69A | 0.02
C11U A20U A28C | 0.12
C11U A21G A28C U74C A77G | 0.08
C11U A21G G55C U58C A64G | 0.04
C11U A21G U25C C32G U72A | 0.24
C11U A21G U41A U49A G70A U78A | 0.04
C11U A28G G55U | 0.11
C11U A35C U41C G46C A57G U80C | 0.09
C11U A35U C40U A75G | 0.06
C11U A45C A64U | 0.08
C11U A45U U51A | 0.25
C11U A56G U66C | 0.09
C11U A57G G70A | 0.19
C11U A64G A65G U78C | 0.11
C11U A64G U66C | 0.22

Variant | self-cleavage
C11U C12G U31C A35G U49C | 0.14
C11U C12U U26C U48C U69C | 0.15
C11U C12U U48C | 0.4
C11U C12U U51C | 0.38
C11U C23U A45G U48A | 0.19
C11U C23U G24C U60A A64U U72C | 0.05
C11U C29G C32U | 0.03
C11U C50U A56U | 0.15
C11U G16C U43C U69A | 0.14
C11U G33U A35G A57G A65G U72A | 0.04
C11U G46U A47G | 0.22
C11U U25A U26C A28G U48C U60C | 0.03
C11U U25A U43A U49C | 0.32
C11U U25C U60A U80A | 0.19
C11U U26A C27U U41C A56U U60A | 0.08
C11U U26A C38U U66A U72C U76A | 0.08
C11U U26A U66C | 0.14
C11U U26C U67C | 0.09
C11U U31A U43C | 0.34
C11U U31A U76A | 0.13
C11U U31A U76C U80C | 0.09
C11U U31G U48C A57G U66A | 0.05
C11U U43C U67C | 0.06
C11U U49C A75G | 0.18

Variant | self-cleavage
C11U U51A A57U G63A U78C | 0.09
C11U U51G A77U | 0.23
C11U U58C U69A A77G | 0.09
C11U U60A C62U | 0.06
C11U U60C U80G | 0.22
C11U U76G A77G | 0.32
C12A A13C A18G C23A U26C U66C | 0.09
C12A A13C U51A U54C U69C | 0.47
C12A A13C U72C | 1.06
C12A A13G A18G U26A U51G | 0.28
C12A A13G A21G G55C | 0.42
C12A A13U U25C G36U U43A A64U | 0.07
C12A A15C A21G U31C A64G | 0.36
C12A A15G C40U | 0.72
C12A A15G U48C U58A U76A U80C | 0.36
C12A A15U A21G U80A | 0.2
C12A A18U A35C U43A U80C | 0.55
C12A A18U U26A C29A | 0.34
C12A A20G U25C G33A U41C U49C U69C | 0.04
C12A A20U G70U U78C | 0.1
C12A A21G U31C G33A U80A | 0.22
C12A A28G U51C U69G U78C | 0.2
C12A A35G U41A U54C C68G | 0.19
C12A A35G U41C | 0.71

Variant | self-cleavage
C12A A45U A65G | 0.22
C12A A65U U66C | 0.39
C12A C17G A20G A21G U31A U72C A75U | 0.17
C12A C17G G24U A35G A64U U80A | 0.04
C12A C17G U31A | 0.11
C12A C17U G30U U54C A77U U80C | 0.2
C12A C27U U54A U80C | 0.3
C12A C44U A56G | 0
C12A G19C U69C | 0.09
C12A G24C A56G A57G C62G A65G | 0.1
C12A G24C U25C U60G | 0.07
C12A U25C A35G A57C | 0.14
C12A U26C G52A U54C U80C | 0.66
C12A U26C U31C U48C A57G | 0.3
C12A U41A U78C | 0.23
C12A U41C U51G A56G U78C | 0.77
C12A U43C U69A U80C | 0.27
C12A U49A A57G | 0.46
C12A U54C G61A U76C | 0.78
C12A U54C U72C | 1.16
C12A U58C A65G | 0.24
C12G A13G A28G U49A U60C C62U U80A | 0.11
C12G A13G C23G C32A A57G | 0.06
